From article PMC4336329 (PLoS ONE, 2015)
The campaign covered roughly 310,000 compounds. About 14,000 (4.5%) showed an effect of 50% or more. The effect is printed as a negative number. The list shows a part of the results.

Target: human ether-à-go-go-related gene (hERG) potassium channel (human, UniProt Q12809)
Assay: primary screen, population patch clamp on CHO cells stably expressing hERG
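Further: peak tail current of the secondary pulse compared with the same well before compound.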

human ether-à-go-go-related gene (hERG) potassium channel, sequence (Q12809 whole entry, looked up): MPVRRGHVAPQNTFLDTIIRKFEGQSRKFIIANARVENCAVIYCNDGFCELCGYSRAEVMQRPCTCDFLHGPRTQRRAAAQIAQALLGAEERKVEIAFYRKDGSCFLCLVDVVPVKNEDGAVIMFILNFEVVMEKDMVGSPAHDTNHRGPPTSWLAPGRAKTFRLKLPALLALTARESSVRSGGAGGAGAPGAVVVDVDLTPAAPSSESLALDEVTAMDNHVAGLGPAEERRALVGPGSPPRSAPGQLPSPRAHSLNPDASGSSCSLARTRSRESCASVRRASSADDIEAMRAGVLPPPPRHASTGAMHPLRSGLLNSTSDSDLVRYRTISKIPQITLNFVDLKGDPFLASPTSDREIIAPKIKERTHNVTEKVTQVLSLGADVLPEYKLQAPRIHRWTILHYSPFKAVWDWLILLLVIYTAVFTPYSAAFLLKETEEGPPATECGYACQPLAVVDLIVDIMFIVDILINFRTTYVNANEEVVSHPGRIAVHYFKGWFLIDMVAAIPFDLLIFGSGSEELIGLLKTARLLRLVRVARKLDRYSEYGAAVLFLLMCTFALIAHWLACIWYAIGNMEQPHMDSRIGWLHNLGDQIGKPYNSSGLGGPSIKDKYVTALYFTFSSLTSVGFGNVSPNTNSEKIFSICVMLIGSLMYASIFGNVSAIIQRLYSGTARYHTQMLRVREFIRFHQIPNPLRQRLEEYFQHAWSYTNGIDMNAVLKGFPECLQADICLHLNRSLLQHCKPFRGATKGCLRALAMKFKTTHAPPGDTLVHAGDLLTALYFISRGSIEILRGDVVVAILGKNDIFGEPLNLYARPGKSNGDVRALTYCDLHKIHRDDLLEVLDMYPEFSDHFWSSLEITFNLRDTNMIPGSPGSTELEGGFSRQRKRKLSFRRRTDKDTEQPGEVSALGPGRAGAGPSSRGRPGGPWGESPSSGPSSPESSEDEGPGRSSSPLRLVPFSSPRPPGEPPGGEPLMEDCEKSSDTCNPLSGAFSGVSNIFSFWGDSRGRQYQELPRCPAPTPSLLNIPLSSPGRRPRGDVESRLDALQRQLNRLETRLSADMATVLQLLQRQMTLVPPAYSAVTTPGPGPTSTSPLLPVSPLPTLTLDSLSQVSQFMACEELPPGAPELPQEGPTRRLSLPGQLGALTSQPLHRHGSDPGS

SMILES | hERG current change (%, negative = inhibition) at 10uM [%]
Nn1c(SCC(=O)Nc2ccc3c(c2)OCO3)nnc1C(F)(F)F | 5.02
Cc1nn(C)c(C)c1S(=O)(=O)N1CCC(C(=O)NC2CCCc3ccccc32)CC1 (centres unmarked) | -11.2
Cc1cc(C)c2c(c1)c(C)cc1nnc(SCC(=O)c3cccs3)n12 | -2.98
Br.CC1(C(=O)CSc2nc3ccccc3s2)CCC(=O)O1 (centres unmarked) | -2.67
O=C(O)c1ccc(NS(=O)(=O)c2cc(Cl)ccc2Cl)cc1O | 9.53
CCOC(=O)C(NC(=O)c1ccc(F)cc1)(Nc1nnc(C)s1)C(F)(F)F (centres unmarked) | 2.19
COc1ccccc1CNc1cncnc1 | 8.08
COc1ccc(Cl)cc1NC(=O)CCN1CCN(c2ccccc2C)CC1 | 6.79
O=C(NCCc1ccc2c(c1)OCCO2)c1cc(F)cc(F)c1 | -6.1
CCOC(=O)C1C2C=CC3(CN(c4ccccc4CC)C(=O)C13)O2 (centres unmarked) | 8.46
O=C(N/N=C/c1ccsc1)c1cc(O)cc(O)c1 | 18.8
O=S1(=O)NC2c3ccccc3CC2O1 (centres unmarked) | 15.1
Cc1ccc(S(=O)(=O)N2CCC(NC(=O)c3ccccc3)CC2)cc1 | 11.7
O=C(Nc1ccc2ncccc2c1)c1ccccc1Cl | 26.5
CCN1C(=O)[C@H]2[C@@H](c3ccc(Cl)cc3)N3C(=O)CN(Cc4ccccc4)C(=O)[C@@]3(C)[C@H]2C1=O | 6.89
CCn1c(=S)sc2c(=O)n(-c3ccccc3)c(SC)nc21 | -11.2
CCn1c(=N)c(C(=O)NCCCOC)cc2c(=O)n3cccc(C)c3nc21 | -61.4
C=CCN1CN(Cc2ccco2)CNC1=S | -8.72
CCOC(=O)N1CCC(NC(=O)Cc2ccccc2)CC1 | 15.6
O=C(CN1C(=O)/C(=C\c2cccc(Br)c2)Oc2ccccc21)NCC1CCCO1 (centres unmarked) | 20.5
CCCS(=O)(=O)N1CCCC(C(=O)Oc2ccc(OC)cc2)C1 (centres unmarked) | 14.7
Cc1ccc(NC(=O)CCC(=O)c2cccs2)c(Br)c1 | 10.5
CCCc1[nH]nc2c1C(c1cc(OC)cc(OC)c1)C(C#N)=C(N)O2 (centres unmarked) | -19.2

SMILES | hERG current change (%, negative = inhibition) at 10uM [%]
CC1CCN(CCOc2ccc(OCc3ccccc3)cc2)CC1.O=C(O)C(=O)O | -70.9
COC(=O)c1cc2c(cc1Cl)N1CCCCCC1=NS2(=O)=O | -10.7
CC(=O)c1ccc(NC(=O)COC(=O)c2ccc(F)cc2F)cc1 | 16.4
Cc1ccc(C(=O)c2ccc(C(F)(F)F)cc2)cc1 | 7.79
COc1ccc(C(=O)N(CCc2ccccc2)Cc2ccccc2)c(OC)n1 | 2.9
N=c1oc2ccccc2cc1C(=O)NCc1ccccc1 | -8.34
CC1Cc2ccccc2N1C(=O)CSc1nccc(=O)[nH]1 (centres unmarked) | 18.1
Cc1cc2c(cc1S(=O)(=O)Nc1ccc(OC(F)(F)F)cc1)OCC(=O)N2 | -42.5
COc1cc2c(cc1OC)CN(CC(=O)NC(=O)NCc1ccco1)CC2 | -14.7
COc1ccc2c(c1)O[C@@H](c1cccc(C(F)(F)F)c1)[C@H](OC(=O)Nc1ccc(OC(F)F)cc1)C2=O | 18.7
COc1ccc(C(=O)N/C(=C\c2ccco2)C(=O)NCc2ccco2)cc1 | -19.7
CC(=O)Nc1ccc(CNC(=O)C[N+]2(C)CCOCC2)cc1.[Cl-] | 15.9
COc1ccc(C(=O)N/C(=C/c2cccnc2)C(=O)N2CCOCC2)cc1OC | 19.8
O=C(O)C1=C(OCc2ccc(F)c(F)c2)C(=O)NCC1 | 16.5
O=C(O/N=C\c1ccc(N2CCCCC2)c([N+](=O)[O-])c1)c1ccc(Cl)cc1Cl | -1.17
CC(C)Oc1cccc(OCCN2C(=O)c3ccccc3C2=O)c1 | -32
CC(Sc1nnc(-c2cccs2)n1N)C(=O)NCC1CCCO1 (centres unmarked) | 1.5
CC(CC(=O)Nc1nncs1)c1ccccc1 (centres unmarked) | 10.7
Cc1cc(Cl)cc2sc(NC(=O)c3ccco3)nc12 | -14.6
Cc1cc(NC(=O)CSc2nnc(C)c(=O)[nH]2)no1 | 11.5
COc1ccc(/C(=N/Nc2ncnc3ccccc23)C(=O)O)cc1 | 20.9
O=C1c2ccccc2C(=O)N1CC1c2ccccc2CCN1C(=O)C1CCCCC1 (centres unmarked) | -29.3
CCOC(=O)N1CCN(C(=O)c2cccn3c(=O)c4cc(Cl)ccc4nc23)CC1 | -65.7

SMILES | hERG current change (%, negative = inhibition) at 10uM [%]
Cc1cc2[nH]c(=O)c(=O)[nH]c2cc1S(=O)(=O)N1CCN(c2cccc(C(F)(F)F)c2)CC1 | 13.2
O=c1cc(/C=C/c2cccs2)[nH]c2ccccc12 | 7.48
Cc1ccc(C)c(NC(=O)c2cc(-c3cccnc3)nc3ccccc23)c1 | 5.65
Cc1cc(/C=C(\C#N)C(=O)O)c(C)n1-c1ccc(Br)cc1 | 5.6
COc1cc(C(C)=O)ccc1OCC(O)CN1CCN(c2c(C)cccc2C)CC1 (centres unmarked) | -60.3
O=C(c1ccc2[nH]c(=O)c(=O)[nH]c2c1)N1CCc2ccccc21 | 9.52
CCN1CCc2c(OCC(=O)N3CCc4ccccc43)cccc2C1=O | -9.73
CCSc1ccc([C@@H]2[C@@H]3C(=O)N(CC)C(=O)[C@@H]3[C@]3(C(=O)OC)CCCN23)cc1.O=C(O)C(F)(F)F | 3.5
O=C(NN1C(=O)c2cc(Br)ccc2NC1c1cc(Br)cc(Br)c1O)c1ccncc1 (centres unmarked) | 3.09
O=c1nc2n(c3cc(Cl)c(S(=O)(=O)N4CCOCC4)cc13)CCCCC2 | 9.97
Cc1nc2ccccc2c(=O)n1NC(=O)c1ccc([N+](=O)[O-])cc1 | 13.3
O=C(CC(c1ccccc1)c1ccccc1)Nc1nn[nH]n1 | 16.3
Cc1ccc(CNC(=O)CCSCc2ccccc2F)cc1 | 0.723
Fc1cnc(N2CCc3ccccc32)nc1N1CCc2ccccc21 | 4.54
CCN1CCN(S(=O)(=O)c2ccc(Cl)c(C(=O)NC3CC3)c2)CC1 | 13.9
CC(C)C(=O)Nc1ccc([N+](=O)[O-])cc1Br | -5.22
CC(=O)Nc1ccc(-c2nc(C)c(C(C)=O)n2O)cc1 | -0.0921
COc1ccc(C2C3=C(CC(C)(C)CC3=O)Nc3c2c(=O)n(C)c(=O)n3C)cc1OC (centres unmarked) | 7.95
O=C(NN1C(=O)c2ccccc2NC1c1ccoc1)c1ccc([N+](=O)[O-])cc1 (centres unmarked) | -41.8
O=C(c1ccco1)N1CCN(C(=O)c2ccc(Cn3cc(Br)cn3)o2)CC1 | -29.5
COc1ccc2c(c1)CCc1c-2nc2ccccc2c1N1CCOCC1 | -14.6
CN(C)c1ccc(C(=O)N/N=C/c2cc(Br)cc(Br)c2O)cc1 | 20
Cc1ccccc1OCCCc1c(C)n[nH]c1C.Cl | 6.26

SMILES | hERG current change (%, negative = inhibition) at 10uM [%]
Cc1ccc2cc(CCNC(=O)c3ccc4c(c3)OCO4)c(=O)[nH]c2c1 | -6.21
COc1ccccc1C(=O)CSc1nnc(-c2ccco2)o1 | 28.9
CC(C)NC(=O)CSCc1cccc(Br)c1 | 9.33
Nc1cc2c(cc1C(=O)c1ccccc1F)OCCO2 | -2.32
COc1ccccc1C1Nc2cccc3cccc(c23)N1 | -50.7
CC(C)NC(=O)C(C)n1cccc1C(=O)c1ccccc1 (centres unmarked) | -4.12
CCOC(=O)c1sc(NC(C)=O)cc1C | 9.67
Nc1cc(-c2ccc(Cl)cc2)nn1S(=O)(=O)c1ccc(Cl)cc1 | 19.1
COc1cc(/C=N/NC(=O)CC2C(=O)NN=C2C)ccc1O (centres unmarked) | 1.83
CCn1c(C)c(C2=CCN(S(=O)(=O)c3ccccc3)CC2)c2ccccc21 | -17.8
Cn1nnnc1SCc1nc2ccccc2s1 | 13.1
Cc1cccc(C)c1NC(=O)C1(N(C(=O)c2ccccn2)c2ccc(O)cc2)CCCCC1 | 0.707
CC(=O)Nc1ccc(C(=O)COC(=O)C2CC3CCCC(C2)C3=O)cc1 (centres unmarked) | 12.9
CCOc1ccc(NC(=O)CN(C)C(=O)c2nc3nc(C)cc(C)n3n2)cc1OCC | 19.4
Cc1ccccc1NC(=O)CSc1nc(N2CCCCC2)nc(N2CCCCC2)n1 | 3.4
COC(=O)CCCCCN1C(=O)/C(=C\c2ccncc2)SC1=S | -5.05
COc1ccc(CNC(=O)CCCn2nc(C)c3c(C)n(-c4ccccc4)nc3c2=O)cc1 | 2.91
O=C(CSc1nnc(-c2ccco2)n1CC1CCCO1)c1ccc(F)cc1 (centres unmarked) | -31.6
COc1ccc(C(=O)N/N=C/c2cccc3cccnc23)cc1 | -9.09
O=C(CSc1ncccc1-c1nc2ccccc2[nH]1)NCc1ccco1 | -23.8
